Source: PubChem BioAssay AID1508624 (National Center for Advancing Translational Sciences (NCATS), 2021)
In all, about 48,000 compounds went through this assay and about 120 (0.25%) were called active. Inconclusive results (about 4%) are left out. Calls come from the whole dose curve; as a rule, active = well fitted activation curve with a large enough effect; inconclusive = small, poorly fitted or top-dose-only effect, or another doubt; inactive = no such curve, though single readings can be large or run the other way. This is one part of the list.

assay: Primary qHTS for Identification of Small Molecule Activators of Huntingtin-Antisense Promoter Activity; settings: HEK293 HTT-AS promoter firefly luciferase reporter, 24 h; series mostly up to 57.5 µM; activity change, positive = activation: at the top concentration; note: nearly all actives have a fitted effect of over 55% in size
Method in brief: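 Quantitative HTS used concentration series of up to 57.5 uM final on HEK293 luciferase reporter cells, 24 h at 37 degrees C. Readout was Dual-Glo firefly luminescence.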

Activity change, positive = activation, inactive:
CC(C(=O)O)c1cccc(Oc2ccccc2)c1 (configuration not stated) 1.71%, Cc1ccc(-c2ccc(=O)n(CC(=O)NC(C)c3ccccc3)n2)cc1 (configuration not stated) -2.41%, O=C(c1ccc2c(c1)N(Cc1ccccc1F)C(=O)c1ccccc1S2(=O)=O)N1CCCCCC1 -28.2%, CCCNC(=O)c1cc2n(n1)CCCN(Cc1ccc(F)cc1)C2=O -12%, COc1cccc(C(=O)c2sc(Nc3ccc(C)cc3C)c(S(=O)(=O)c3ccccc3)c2N)c1 -22.7%, C[C@@H]1CN(CCCn2c3ccccc3c3ccccc32)C[C@H](C)N1 -24.2%, CCOc1ccc(CCNC(=O)c2ccc(Cn3c(=O)c4cccn4c4cccnc43)cc2)cc1 -49.5%, COc1ccc(-c2csc3ncnc(Nc4ccc(OC)c(OC)c4)c23)cc1 -20%, CC(C)=CCOc1ccc(/C=C/C(=O)c2ccc(OCC=C(C)C)cc2OCC(=O)O)cc1 -14.3%, CCOC(=O)c1sc(N2C(=O)c3oc4ccc(F)cc4c(=O)c3C2c2cccc(OC)c2)nc1C (configuration not stated) -9.8%, Cc1cc(N2CCCCC2)nc2ccc(NC(=O)CCC(=O)N3CCN(c4cccc(Cl)c4)CC3)cc12 -8.02%, CCN(C(=O)Cn1c(SCc2ccccc2F)nc2cccnc21)c1ccccc1 6.29%, O=C(CSCc1nc2cccnc2n1C1CCCCC1)NCc1cccc(Br)c1 -19.5%, O=C(OCc1ccccc1)c1ccc(-c2nnn(Cc3ccccc3F)n2)cc1 -7.42%, Cc1ccc2scc(N3CCN(c4ccccc4)CC3)c(=O)c2c1 0.105%, CCOc1ccc(CCNC(=O)c2ccc3[nH]c(C)c(C)c3c2)cc1 -19.1%, CCCCC(=O)NC1(C(F)(F)F)C(=O)Nc2c1c(=O)[nH]c(=O)n2-c1ccc(F)cc1 (configuration not stated) -19.4%, Cc1ccc(C)c(NC(=O)C2CCCN(S(=O)(=O)c3cccc4nsnc34)C2)c1 (configuration not stated) -14.6%, COc1cc(Cl)c(NS(=O)(=O)c2ccc3[nH]c(=O)ccc3c2)c(OC)c1 -22.3%, CCC1CCCCN1C(=O)Cn1c(=O)n(-c2ccccc2C(F)(F)F)c(=O)c2c(C)c(C(=O)N(C)C)sc21 (configuration not stated) 0.893%, CCOc1ccc(NC(=O)C(CC)n2nc(-c3ccc(C)c(C)c3)ccc2=O)cc1 (configuration not stated) -16.7%, CCOc1ccc(OCC)c(NC(=O)CN(c2ccc(C)cc2)S(=O)(=O)c2c(C)n[nH]c2C)c1 -24%, COc1ccc(C2CC(=O)c3c([nH]c(C(=O)OC4CCCC4)c3C)C2)cc1OC (configuration not stated) -24.1%, COc1ccccc1N1CCN(C(c2ccccc2)c2nnc(-c3ccccc3Cl)o2)CC1 (configuration not stated) -14.1%, Cc1ccc(NC(=O)Cn2c(=O)n(Cc3nc(-c4ccccc4)no3)c(=O)c3cc4c(cc32)OCO4)cc1C -4.15%, COC(=O)c1ccccc1NC(=O)CSc1nc2sc3c(c2c(=O)[nH]1)CCCC3 -11.4%, O=C(CN1C(=O)C2CCCCN2c2ccc(C(=O)N3CCCC3)cc21)NCc1ccccc1 (configuration not stated) -18.4%, O=C1OC(c2ccc(O)cc2)(c2ccc(O)cc2)c2ccccc21 -44.7%, COCCCNC(=O)Cn1c(=O)n(-c2cccc(C)c2)c(=O)c2c3c(sc21)CN(C(C)=O)CC3 -19%, CON=C(C(=O)N[C@@H]1C(=O)N2C(C(=O)O)=C(CSC(=O)c3ccco3)CS[C@H]12)c1csc(N)n1 -4.85%, COc1ccc(-c2cc(C(F)(F)F)nc(S(=O)(=O)CCCC(=O)Nc3ccccc3C(F)(F)F)n2)cc1OC -93.7%, COc1ccccc1CNc1nc(-c2ccco2)nn1C(=O)c1ccccc1[N+](=O)[O-] 19%, COc1cc(C(=S)N2CCOCC2)ccc1O -18.1%, CCCCn1c(CCNC(=O)c2ccc(F)cc2)nc2ccccc21 -21.1%, COc1cccc(CNC(=O)Cn2cc3c(n2)-c2c(oc(C(=O)N4CCOCC4)c2C)CC3)c1 -24.6%, COc1ccc(S(=O)(=O)N2Cc3ccccc3CC2C(=O)Nc2cccc(C)c2)cc1OC (configuration not stated) 5.74% [at 11.5 µM, percent change from vehicle, -100% = no light], CC1(C)S[C@H]2[C@H](NC(=O)[C@@H](N)c3ccc(O)cc3)C(=O)N2[C@@H]1C(=O)O -0.0477%, CCc1cccc(C)c1NC(=O)C1CCCN(S(=O)(=O)c2cccc3nsnc23)C1 (configuration not stated) -16.9%, CCN(C(=O)CSc1nnc(-c2ccc(Cl)cc2)o1)c1ccccc1 -8.94%, CCOc1ccc2ncc3c(-c4ccccc4)nn(CC(=O)Nc4cccc(F)c4)c3c2c1 0.131%, Cc1ccc(C)c(N2CCN(CCCNC(=O)Cn3c(-c4cccs4)cc4ccccc43)CC2)c1 -39.7%, O=C(CSc1nc2c(c(=O)[nH]1)CCCC2)Nc1cccc(O)c1 -0.972%, CCCn1cc(S(=O)(=O)c2cccc(Cl)c2)c(=O)c2cc(F)c(N3CCN(CC)CC3)cc21 -6.8%, COc1cc2[nH]c(=O)n(CCCC(=O)NCc3ccccc3Cl)c(=O)c2cc1OC -13.9%, Cc1cc(OCCn2c(C3CC(=O)N(Cc4ccc(F)cc4)C3)nc3ccccc32)ccc1Cl (configuration not stated) -57.3%, COCCCNC(=O)C1CCN(c2nnc(-n3cccc3CNc3ccc(C)cc3)s2)CC1 -22.5%, COCCCn1c(=N)c(S(=O)(=O)c2ccccc2)cc2c(=O)n3cccc(C)c3nc21 2.86%, Cc1cc(Nc2cc(NC(=O)c3c(Cl)cccc3Cl)ccn2)nc(N)n1 -12.5%, CC1(C)CC(=O)c2cc(C(=O)Nc3ccc(Br)cc3)c(=O)n(-c3ccc(Cl)cc3)c2C1 -3.59%, CCn1cc2nc(SCc3cc(C)ccc3C)n(Cc3ccc(C)cc3)c(=O)c2n1 -3.7%, COCCOc1nc(-c2ccc(Cl)c(Cl)c2)n(-c2ccc(NC(=O)CCl)cc2)n1 -15.8%, Cc1oc(-c2ccccc2F)nc1Cn1c(SCc2ccccc2F)nc2ccncc21 -13.6%, Cc1ccccc1OCc1nc2c3cnn(-c4ccccc4Br)c3ncn2n1 1.96%, Cc1ccc(C2c3cccn3CCN2S(=O)(=O)c2ccc([N+](=O)[O-])cc2)cc1 (configuration not stated) -29.3%, COc1ccc(/C=N/NC(=O)c2ccncc2)cc1OC -7.25%, COC(=O)c1ccc(CSc2nc3c([nH]c4ccccc43)c(=O)n2-c2cccc(OC)c2)o1 -33.7%, Cc1ccnc(NS(=O)(=O)c2ccc(NC(=O)c3cc(=O)c4ccc(C)c(C)c4o3)cc2)n1 -3.22%, COc1ccc(CNC(=O)c2cc3c(=O)n(Cc4cccs4)ccc3nc2C)cc1 -24.6%, CCOC(=O)c1sc(NC(=O)c2nc(SCC)ncc2Cl)c(C(=O)OCC)c1C 13.7%, CN(C)CCNC(=O)Cc1ccc(NC(=O)N2CCCCc3ccccc32)cc1 -7.01%, Cc1ccc(C(=O)c2cn(Cc3ccc(F)cc3)c3nc(C)ccc3c2=O)cc1 -29.8%, CCOC(=O)c1cc(-c2ccc(C)cc2)n(CC(=O)Nc2cccc(C(C)=O)c2)c1C -14.5%, O=C(CC1N=C2c3ccccc3N=C(SCC(=O)Nc3cccc(Cl)c3)N2C1=O)NCc1cccs1 (configuration not stated) -9.77%, CC1CCN(S(=O)(=O)c2ccc(N3CCCCS3(=O)=O)cc2)CC1 -14.5%, COc1ccc(CCNC(=O)Cn2cc(S(=O)(=O)Cc3ccccc3F)c3ccccc32)cc1OC -9.27%, Cc1cccc(Cn2c(=O)n(CCC(=O)NCc3ccc4c(c3)OCO4)c(=O)c3sccc32)c1 -6.23%, Cc1ccc(C)n1-c1nnc(N2CCC(C(=O)Nc3ccccc3Br)CC2)s1 3.37%, COc1ccc2c(c1)Cc1sc(NC(=O)c3ccccc3Br)nc1-2 5.94%, CCn1c(SCC(=O)Nc2ccc(C)cc2Br)nnc1-c1nonc1NC(C)=O -20%, COc1cccc(CNC(=O)CSc2nc(=O)[nH]c3c2CCCC3)c1 -3.78%, O=C(NCc1ccc(F)cc1)c1ccc(CS(=O)(=O)c2ccc(Cl)cc2)o1 -32.5%, CC(=O)N[C@@H](Cc1ccc(O)cc1)C(=O)O -12.2%, Oc1c(C(c2ccc(Cl)cc2Cl)N2CCOCC2)sc2nc(-c3ccco3)nn12 (configuration not stated) -19.8%, OC[C@@H](O)[C@@H](O)[C@H](O)[C@H](O)CO -6.11%, CCc1ccc(NC(=O)Cn2c(=O)c(-c3ccccc3NC(C)=O)nc3ccccc32)cc1 -31%, CCOc1ccc(S(=O)(=O)N(CC(=O)NCCSCc2ccc(C)cc2)c2ccccc2)cc1 -13%, CCn1ccc2cc(S(=O)(=O)N3CCCN(C(=O)Nc4ccccc4C(F)(F)F)CC3)ccc21 -16.8%, Cc1ccc2c(=O)cc(C(=O)Nc3nnc(CC(C)C)s3)oc2c1C 2.08%, O=C(CN(c1ccc(Cl)c(C(F)(F)F)c1)S(=O)(=O)c1ccccc1)N1CCc2ccccc2C1 -7.79% [at 11.5 µM, percent change from vehicle, -100% = no light], C=CCc1ccc(O)c(OC)c1 -1.19%, Cc1ccc(NC(=O)c2sc(-n3nc(C)c(CCC(C)C)c3C)nc2C)cc1C 1.71%, Cc1nc2ccn(Cc3cccs3)c(=O)c2cc1C(=O)N1CCN(c2ccc(F)cc2)CC1 -17.4%, CCc1ccccc1N(C)C(=O)C1CCCN(c2ncnc3onc(-c4ccc(F)cc4)c23)C1 (configuration not stated) -4.3%, Cc1ccc(OCCn2c(CNc3cccc(C)c3)nc3ccccc32)cc1 -11.7%, CCCN1CCc2nc(N3CCN(CC)CC3)ncc2C1 -10%, COc1ccccc1CNc1cc(-c2ccccc2)nc2nncn12 -32.4%, CCOc1cccc(C(=O)Nc2c(C(=O)c3ccc(OC)cc3)oc3ccccc23)c1 -8.77%, CCCCOC(=O)c1ccc(NC(=O)c2cc(-c3ccccc3)on2)cc1 1.22%, COc1ccc(N2Cc3cccc(C(=O)Nc4ccc(C(C)C)cc4)c3C2=O)cc1 6.23%, CC(=O)c1ccc(C(=O)N(CCCN(C)C)c2nc3c(C)c(C)ccc3s2)cc1 -21.6%, CS(=O)(=O)NCC(c1ccco1)N1CCN(c2ccccc2)CC1 (configuration not stated) -15.1%, CCOC(=O)C1CCCN(C(=O)C2CCN(c3nnc(C)c4c(C)n(-c5ccccc5)nc34)CC2)C1 (configuration not stated) -17.2%
